Data: the supplement of paper PMC4604168 (melanoma cell lines)
Some of the results follow. Many values rest on one well or one pass, so single values are uncertain.

Each compound was assayed on A2058 (assay: cell count relative to DMSO control; melanoma cells; higher = more viable cells). Settings: library dose: standard library concentration; 72 h.
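Further: cells treated in 1,536-well plates, then fixed and DAPI-stained, with nuclei counted from automated high-throughput microscope images.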

Row | Structure (SMILES) | cell count
1 | Cc1cc(Nc2cc(N3CCN(C)CC3)nc(Sc3ccc(NC(=O)C4CC4)cc3)n2)n[nH]1 [Tozasertib] + Nc1ccn([C@@H]2O[C@H](CO)[C@@H](O)C2(F)F)c(=O)n1 [gemcitabine] (first compound 0.03 µM, partner dose 0.002 µM) | 59.5%
2 | CC[C@]1(O)C[C@H]2CN(CCc3c([nH]c4ccccc34)[C@@](C(=O)OC)(c3cc4c(cc3OC)N(C=O)[C@H]3[C@@](O)(C(=O)OC)[C@H](OC(C)=O)[C@]5(CC)C=CCN6CC[C@]43[C@@H]65)C2)C1 [vincristine] + COc1cc(Nc2ncc(F)c(Nc3ccc4c(n3)NC(=O)C(C)(C)O4)n2)cc(OC)c1OC [Tamatinib] (first compound 0.0005 µM, partner dose 2 µM) | 5.59%
3 | CC[C@]1(O)C[C@H]2CN(CCc3c([nH]c4ccccc34)[C@@](C(=O)OC)(c3cc4c(cc3OC)N(C=O)[C@H]3[C@@](O)(C(=O)OC)[C@H](OC(C)=O)[C@]5(CC)C=CCN6CC[C@]43[C@@H]65)C2)C1 [vincristine] + C[C@]1(c2nc3c(C(N)=O)cccc3[nH]2)CCCN1 [Veliparib] (first compound 0.0005 µM, partner dose 7 µM) | 10.8%
4 | N#CC[C@H](C1CCCC1)n1cc(-c2ncnc3[nH]ccc23)cn1 [ruxolitinib] + OCc1c[nH]c2ccccc12 [Indole-3-carbinol] (first compound 5 µM, partner dose 4 µM) | 71.9%
5 | Cc1cc(Nc2cc(N3CCN(C)CC3)nc(Sc3ccc(NC(=O)C4CC4)cc3)n2)n[nH]1 [Tozasertib] + CO[C@@H]1[C@H](N(C)C(=O)c2ccccc2)C[C@H]2O[C@]1(C)n1c3ccccc3c3c4c(c5c6ccccc6n2c5c31)C(=O)NC4 [Midostaurin] (first compound 0.03 µM, partner dose 0.4 µM) | 28.5%
6 | N#CC[C@H](C1CCCC1)n1cc(-c2ncnc3[nH]ccc23)cn1 [ruxolitinib] + COCC[n+]1c2c(n(Cc3cnccn3)c1C)C(=O)c1ccccc1C2=O [YM155] (first compound 5 µM, partner dose 0.002 µM) | 16.8%
7 | N#CC[C@H](C1CCCC1)n1cc(-c2ncnc3[nH]ccc23)cn1 [ruxolitinib] + NC1(c2ccc(-c3nc4ccn5c(=O)[nH]nc5c4cc3-c3ccccc3)cc2)CCC1 [MK2206] (first compound 5 µM, partner dose 2 µM) | 64.6%
8 | Cc1cc(Nc2cc(N3CCN(C)CC3)nc(Sc3ccc(NC(=O)C4CC4)cc3)n2)n[nH]1 [Tozasertib] + CC(C)CCN1c2nc(Nc3cc(F)c(O)c(F)c3)ncc2N(C)C(=O)C1C [BID1870] (first compound 0.03 µM, partner dose 1 µM) | 76%
9 | CC[C@]1(O)C[C@H]2CN(CCc3c([nH]c4ccccc34)[C@@](C(=O)OC)(c3cc4c(cc3OC)N(C=O)[C@H]3[C@@](O)(C(=O)OC)[C@H](OC(C)=O)[C@]5(CC)C=CCN6CC[C@]43[C@@H]65)C2)C1 [vincristine] + C=CCNC1=C2C[C@@H](C)C[C@H](OC)[C@H](O)[C@@H](C)/C=C(\C)[C@H](OC(N)=O)[C@@H](OC)/C=C\C=C(/C)C(=O)NC(=CC1=O)C2=O [Tanespimycin] (first compound 0.0005 µM, partner dose 0.01 µM) | 69.1%
10 | N#CC[C@H](C1CCCC1)n1cc(-c2ncnc3[nH]ccc23)cn1 [ruxolitinib] + Cc1cn(-c2cc(NC(=O)c3ccc(C)c(Nc4nccc(-c5cccnc5)n4)c3)cc(C(F)(F)F)c2)cn1 [nilotinib] (first compound 5 µM, partner dose 1 µM) | 77.7%
11 | N#CC[C@H](C1CCCC1)n1cc(-c2ncnc3[nH]ccc23)cn1 [ruxolitinib] + CO[C@@H]1[C@H](N(C)C(=O)c2ccccc2)C[C@H]2O[C@]1(C)n1c3ccccc3c3c4c(c5c6ccccc6n2c5c31)C(=O)NC4 [Midostaurin] (first compound 5 µM, partner dose 0.4 µM) | 52%
12 | N#CC[C@H](C1CCCC1)n1cc(-c2ncnc3[nH]ccc23)cn1 [ruxolitinib] + O=C(/C=C/c1cccnc1)NCCCCC1CCN(C(=O)c2ccccc2)CC1 [FK866] (first compound 5 µM, partner dose 0.05 µM) | 83.2%
13 | Cc1cc(Nc2cc(N3CCN(C)CC3)nc(Sc3ccc(NC(=O)C4CC4)cc3)n2)n[nH]1 [Tozasertib] + Cn1c(=O)n(-c2ccc(C(C)(C)C#N)cc2)c2c3cc(-c4cnc5ccccc5c4)ccc3ncc21 [NVP-BEZ235] (first compound 0.03 µM, partner dose 0.02 µM) | 53.9%
14 | Cc1cc(Nc2cc(N3CCN(C)CC3)nc(Sc3ccc(NC(=O)C4CC4)cc3)n2)n[nH]1 [Tozasertib] + N#CC[C@H](C1CCCC1)n1cc(-c2ncnc3[nH]ccc23)cn1 [ruxolitinib] (first compound 0.03 µM, partner dose 5 µM) | 85.9%
15 | Cc1cc(Nc2cc(N3CCN(C)CC3)nc(Sc3ccc(NC(=O)C4CC4)cc3)n2)n[nH]1 [Tozasertib] + CS(=O)(=O)CCNCc1ccc(-c2ccc3ncnc(Nc4ccc(OCc5cccc(F)c5)c(Cl)c4)c3c2)o1 [lapatinib] (first compound 0.03 µM, partner dose 4 µM) | 66.4%
16 | Cc1cc(Nc2cc(N3CCN(C)CC3)nc(Sc3ccc(NC(=O)C4CC4)cc3)n2)n[nH]1 [Tozasertib] + Nc1nc(F)nc2c1ncn2[C@@H]1O[C@H](CO)[C@@H](O)[C@@H]1O [fludarabine] (first compound 0.03 µM, partner dose 1 µM) | 79.2%
17 | CC[C@]1(O)C[C@H]2CN(CCc3c([nH]c4ccccc34)[C@@](C(=O)OC)(c3cc4c(cc3OC)N(C=O)[C@H]3[C@@](O)(C(=O)OC)[C@H](OC(C)=O)[C@]5(CC)C=CCN6CC[C@]43[C@@H]65)C2)C1 [vincristine] + Cc1ccc(NC(=O)c2cccc(N(C)C)c2)cc1NC(=O)c1ccc(O)cc1 [ZM336372] (first compound 0.0005 µM, partner dose 10 µM) | 14.3%
18 | CC[C@]1(O)C[C@H]2CN(CCc3c([nH]c4ccccc34)[C@@](C(=O)OC)(c3cc4c(cc3OC)N(C=O)[C@H]3[C@@](O)(C(=O)OC)[C@H](OC(C)=O)[C@]5(CC)C=CCN6CC[C@]43[C@@H]65)C2)C1 [vincristine] + CC(C)C[C@H](NC(=O)[C@H](Cc1ccccc1)NC(=O)c1cnccn1)B(O)O [Bortezomib] (first compound 0.0005 µM, partner dose 0.005 µM) | 12.1%
19 | Cc1cc(Nc2cc(N3CCN(C)CC3)nc(Sc3ccc(NC(=O)C4CC4)cc3)n2)n[nH]1 [Tozasertib] + C[C@@H]1CCN(C(=O)CC#N)C[C@@H]1N(C)c1ncnc2[nH]ccc12 [CP690550] (first compound 0.03 µM, partner dose 5 µM) | 74.2%
20 | Cc1cc(Nc2cc(N3CCN(C)CC3)nc(Sc3ccc(NC(=O)C4CC4)cc3)n2)n[nH]1 [Tozasertib] + COc1ccc(C2=N[C@@H](c3ccc(Cl)cc3)[C@@H](c3ccc(Cl)cc3)N2C(=O)N2CCNC(=O)C2)c(OC(C)C)c1 [Nutlin-3] (first compound 0.03 µM, partner dose 0.5 µM) | 78.8%
21 | N#CC[C@H](C1CCCC1)n1cc(-c2ncnc3[nH]ccc23)cn1 [ruxolitinib] + CCN(CC)CCCCNc1ncc2cc(-c3cc(OC)cc(OC)c3)c(NC(=O)NC(C)(C)C)nc2n1 [PD173074] (first compound 5 µM, partner dose 0.5 µM) | 85.2%
22 | Cc1cc(Nc2cc(N3CCN(C)CC3)nc(Sc3ccc(NC(=O)C4CC4)cc3)n2)n[nH]1 [Tozasertib] + CCCCCCCCCCCCCCCCCCOP(=O)([O-])OC1CC[N+](C)(C)CC1 [Perifosine] (first compound 0.03 µM, partner dose 2 µM) | 76.2%
23 | Cc1cc(Nc2cc(N3CCN(C)CC3)nc(Sc3ccc(NC(=O)C4CC4)cc3)n2)n[nH]1 [Tozasertib] + O=C(CCCCCCC(=O)Nc1ccccc1)NO [vorinostat] (first compound 0.03 µM, partner dose 0.4 µM) | 80.6%
24 | N#CC[C@H](C1CCCC1)n1cc(-c2ncnc3[nH]ccc23)cn1 [ruxolitinib] + CCCS(=O)(=O)Nc1ccc(F)c(C(=O)c2c[nH]c3ncc(Cl)cc23)c1F [PLX4720] (first compound 5 µM, partner dose 0.4 µM) | 100%
25 | Cc1cc(Nc2cc(N3CCN(C)CC3)nc(Sc3ccc(NC(=O)C4CC4)cc3)n2)n[nH]1 [Tozasertib] + CN(C)S(=O)(=O)c1ccc2c(c1)/C(=C/c1cc3c([nH]1)CCCC3)C(=O)N2 [SU6656] (first compound 0.03 µM, partner dose 2 µM) | 92.9%
26 | Cc1cc(Nc2cc(N3CCN(C)CC3)nc(Sc3ccc(NC(=O)C4CC4)cc3)n2)n[nH]1 [Tozasertib] + Cc1cc(N2CCOCC2)cc2[nH]c(-c3c(NC[C@@H](O)c4cccc(Cl)c4)cc[nH]c3=O)nc12 [BMS536924] (first compound 0.03 µM, partner dose 1 µM) | 76.4%
27 | Cc1cc(Nc2cc(N3CCN(C)CC3)nc(Sc3ccc(NC(=O)C4CC4)cc3)n2)n[nH]1 [Tozasertib] + C[C@]1(c2nc3c(C(N)=O)cccc3[nH]2)CCCN1 [Veliparib] (first compound 0.03 µM, partner dose 7 µM) | 66%
